Records with an inconclusive call do not appear. A number of entries come with more than one value. They are shown here; other results are not. An entry can have further records. The records of an entry differ for a reason that is not stated; some may be repeats, others may stem from another dose, organism or construct than stated.
System: Lewis lung carcinoma i.m., BDF1 mice, T/C %
Test: NCI In Vivo Anticancer Drug Screen. Data for tumor model Lewis Lung Carcinoma (intramuscular) in B6D2F1 (BDF1) mice
Method: The antitumor activity of compounds was measured in mice bearing transplantable tumors. Survival or tumor size were measured and the results are expressed as the measurement made in the treated group (T) divided by the measurement made in the vehicle treated control group (C). The tumor model used in this assay is Lewis Lung Carcinoma (intramuscular) in B6D2F1 (BDF1) mice

In the case of `O=NN(CCCl)C(=O)NCCCl`, the T/C (endpoint: median survival time, dose: 14.0 mg/kg/injection, schedule: Q## X002 (ip), vehicle: saline, higher = longer survival) is reported as 104 % of control and 192 % of control and the T/C (endpoint: median survival time, dose: 23.0 mg/kg/injection, schedule: Q## X002 (ip), vehicle: saline, higher = longer survival) is reported as 118 % of control and 181 % of control.
With `O=C1N[C@@H]([C@H]2CC[C@H](Cl)CN2)C(=O)N[C@H]1[C@H]1CC[C@H](Cl)CN1` the T/C (endpoint: median survival time, dose: 2.0 mg/kg/injection, schedule: Q01DX011 (ip), vehicle: saline, higher = longer survival) was 120 % of control and 157 % of control.
For `CCc1nc(N)nc(N)c1-c1ccc(Cl)cc1`, the T/C (endpoint: mean tumor weight, dose: 4.0 mg/kg/injection, schedule: Q06HX008 (ip), vehicle: Klucel (hydroxypropylcellulose) (HPC), higher = larger tumour) was 52 % of control and 80 % of control, the T/C (endpoint: mean tumor weight, dose: 16.0 mg/kg/injection, schedule: Q08DX002 (ip), vehicle: Klucel (hydroxypropylcellulose) (HPC), higher = larger tumour) was 55 % of control and 100 % of control and the T/C (endpoint: mean tumor weight, dose: 32.0 mg/kg/injection, schedule: Q01DX009 (ip), vehicle: Klucel (hydroxypropylcellulose) (HPC), higher = larger tumour) was 66 % of control and 98 % of control.
`Clc1ncnc2nc[nH]c12` was tested, and the T/C (endpoint: median survival time, dose: 12.5 mg/kg/injection, schedule: Q01DX011 (ip), vehicle: other, higher = longer survival) was 94 % of control and 151 % of control.
For `OC(CBr)C(O)C(O)C(O)CBr` (stereo unspecified), the T/C (endpoint: median survival time, dose: 100.0 mg/kg/injection, schedule: Q01DX011 (ip), vehicle: Klucel (hydroxypropylcellulose) (HPC), higher = longer survival) was 109 % of control and 161 % of control.
`Cc1c(N)nc([C@H](CC(N)=O)NC[C@H](N)C(N)=O)nc1C(=O)N[C@H](C(=O)N[C@H](C)[C@@H](O)[C@H](C)C(=O)N[C@H](C(=O)NCCc1nc(-c2nc(C(=O)NCCC[S+](C)C)cs2)cs1)[C@@H](C)O)C(OC1OC(CO)C(O)C(O)C1OC1OC(CO)C(O)C(OC(N)=O)C1O)c1cnc[nH]1` (stereo partly specified) was tested, and the T/C (endpoint: mean tumor weight (est.), dose: 1.8 mg/kg/injection, schedule: Q01DX009 (ip), vehicle: saline, higher = larger tumour) was 40 % of control and 80 % of control, the T/C (endpoint: mean tumor weight (est.), dose: 3.0 mg/kg/injection, schedule: Q01DX009 (ip), vehicle: saline, higher = larger tumour) was 35 % of control and 82 % of control and the T/C (endpoint: mean tumor weight (est.), dose: 5.0 mg/kg/injection, schedule: Q01DX009 (ip), vehicle: saline, higher = larger tumour) was 19 % of control, 31 % of control, 58 % of control.

From PubChem BioAssay AID272 (DTP/NCI, 2004)
